From PubChem BioAssay AID488969 (Vanderbilt High Throughput Screening Facility, 2010)
The full ranking holds about 110,000 compounds; the median of “z-score” is about -0.1, and the highest 2% start at about 2. The list shows a part of the results. Calls of active or inactive are those of the source.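 The calls were made as follows: active = z-score in the third read window above 3 or below -3; inactive = the rest.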

target: Metabotropic glutamate receptor 8 (Rattus norvegicus) (UniProt P70579); test: rat mGluR8 modulators via GIRK flux, primary screen, cell-based, thallium flux, HTS (AID 488969); conditions: HEK293 rat mGluR8, GIRK (G protein-gated inwardly rectifying potassium channel) thallium flux, FluoZin2; at 10 µM; stronger effect = higher value; submaximal glutamate (EC20) added with thallium
Chain of UniProt P70579 (P70579 whole entry, looked up): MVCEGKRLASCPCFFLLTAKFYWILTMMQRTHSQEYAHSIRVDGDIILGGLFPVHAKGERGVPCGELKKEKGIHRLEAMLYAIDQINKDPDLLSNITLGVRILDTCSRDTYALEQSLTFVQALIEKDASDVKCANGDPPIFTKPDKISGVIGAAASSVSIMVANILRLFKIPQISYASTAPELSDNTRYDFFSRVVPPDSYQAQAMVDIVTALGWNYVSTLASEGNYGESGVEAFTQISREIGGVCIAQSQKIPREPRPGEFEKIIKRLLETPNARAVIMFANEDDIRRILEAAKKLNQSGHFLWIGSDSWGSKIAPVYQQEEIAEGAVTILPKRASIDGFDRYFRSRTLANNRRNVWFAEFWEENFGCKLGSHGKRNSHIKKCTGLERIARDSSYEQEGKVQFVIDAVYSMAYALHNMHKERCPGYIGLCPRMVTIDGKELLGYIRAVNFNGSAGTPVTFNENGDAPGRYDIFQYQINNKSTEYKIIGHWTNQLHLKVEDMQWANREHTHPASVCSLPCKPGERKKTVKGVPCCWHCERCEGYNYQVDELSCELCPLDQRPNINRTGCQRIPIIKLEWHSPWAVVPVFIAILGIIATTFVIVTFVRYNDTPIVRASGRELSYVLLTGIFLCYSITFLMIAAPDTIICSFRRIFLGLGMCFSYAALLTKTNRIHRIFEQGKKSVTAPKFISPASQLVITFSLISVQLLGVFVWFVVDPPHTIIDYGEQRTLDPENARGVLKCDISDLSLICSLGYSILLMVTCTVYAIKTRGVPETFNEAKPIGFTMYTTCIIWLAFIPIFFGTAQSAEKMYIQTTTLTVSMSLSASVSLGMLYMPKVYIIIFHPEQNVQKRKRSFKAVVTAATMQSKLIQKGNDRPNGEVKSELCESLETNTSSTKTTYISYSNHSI

Row | SMILES | z-score
1 | COc1ccc(OCC(=O)Nc2cccc3ncccc23)cc1 | 0.0307
2 | Cc1ccc(N(C(=O)C2CCCC2)C2C=CS(=O)(=O)C2)cc1C (centres undefined) | 0.364
3 | Cc1ccc2nc(-c3ccc(NC(=O)CN4C(=O)NC(C)(c5ccc(OC(F)F)cc5)C4=O)cc3)sc2c1 (centres undefined) | -0.0637
4 | CCCCc1c(CCC)c(=N)c2ccccc2n1C | -0.341
5 | NC(=O)CSc1ncc(-c2ccccc2)[nH]1 | 0.142
6 | CCOC(=O)c1c(C)n(C)c2ccc(OCCN(C)C)cc12 | 0.165
7 | COc1cc(/C=N/NC(=O)c2cccnc2)ccc1OC(=O)c1ccco1 | 0.0474
8 | O=C1OCc2cc(NC(=O)C3CCCO3)ccc21 (centres undefined) | 0.444
9 | Cc1cccc(C)c1NC(=O)Cn1nc(-c2ccccc2)nc1-c1ccccc1 | -0.0804
10 | CS(=O)(=O)CCC(C(=O)OCc1ccc(Br)cc1)N1C(=O)c2ccccc2C1=O (centres undefined) | 0.133
11 | COc1ccc(OC)c(NC(=O)CCN2CCCCCC2)c1 | 0.195
12 | Cc1c(Br)c([N+](=O)[O-])nn1CCCC(=O)Nc1sc2c(c1C#N)CCC2 | -0.0362
13 | Cc1ccc(S(=O)(=O)Oc2ccc3c(c2)O/C(=C\c2cccnc2)C3=O)cc1 | 0.0523
14 | CCc1onc(C)c1C(=O)Nc1cc(C)ccc1OC | -0.121
15 | COc1ccc(-c2cc(=O)oc3cc(OC(C)C(=O)O)ccc23)cc1 (centres undefined) | -0.106
16 | COc1ccc(C2SCC(=O)N2c2c(C)n(C)n(-c3ccccc3)c2=O)c(OC)c1 (centres undefined) | -0.0885
17 | COc1cc2c(C(=O)N3CCN(Cc4ccc5c(c4)OCO5)CC3)cn(C)c(=O)c2cc1OC | -0.00768
18 | Cc1ccc(C2(C)NC(=O)N(CC(=O)c3ccc(Cl)s3)C2=O)cc1 (centres undefined) | 0.0536
19 | CCOC(=O)c1cccc(-c2ccc(C=O)o2)c1 | -0.619
20 | CC(C)(C)N1CC(COc2ccccc2)OC1=O (centres undefined) | -0.641
21 | O=C(Cc1ccccc1)NC1CCS(=O)(=O)C1 (centres undefined) | -0.249
22 | O=C(CSc1nn(-c2ccc(F)cc2)c(=S)s1)NC(=O)NCc1ccco1 | -0.468

Row | SMILES | z-score
23 | Cc1ccc(CSCCNC(=O)c2cccc([N+](=O)[O-])c2)cc1 | -0.0559
24 | CCCCC(=O)Nc1ccc(NC(=O)c2cccs2)cn1 | 0.308
25 | COc1cc(/C=N/NC(=O)CSCc2ccc([N+](=O)[O-])cc2)cc(OC)c1OC | -0.207
26 | COc1cc(C2NC(=O)NC(C)=C2C(=O)OCc2ccc(C)cc2)cc(OC)c1O (centres undefined) | -0.236
27 | O=C(NCCc1ccc(F)cc1)c1cccs1 | 0.0095
28 | Cc1ccc(CNC(=O)CCS(=O)(=O)c2ccc(Br)s2)cc1 | -0.425
29 | COCCNC(=O)CSc1nc2ccc(N3CCOCC3)cc2c(=O)n1Cc1ccc(OC)cc1 | 0.698
30 | COC(=O)CSc1nnc(-c2ccc3c(c2)OCO3)n1C | 0.135
31 | O=C(Cn1cnc2cc([N+](=O)[O-])ccc2c1=O)NC(c1ccccc1)c1ccccc1 | -0.112
32 | CC1CN(C)C(c2ccccc2)C(C)C12NC(=O)NC2=O (centres undefined) | 0.0301
33 | CC(=O)c1cccc(NC(=O)C2CCN(S(C)(=O)=O)CC2)c1 | 0.0121
34 | CCn1ncc(Br)c1C(=O)Nc1sc2c(c1C(N)=O)CCC2 | -0.182
35 | COCCn1c(COc2ccc(C)cc2)nc2ccccc21 | -0.333
36 | CCOC(=O)/C=C1\SCC(=O)N1Cc1nnc(-c2ccccc2Br)o1 | -0.304
37 | CCCc1cc(=O)[nH]c(SCC(=O)Nc2ccc(OC(F)F)cc2)n1 | -0.196
38 | COc1ccc(N2CSC3=C(C#N)C(c4cccc(OC)c4OC)CC(=O)N3C2)cc1 (centres undefined) | -0.281
39 | Cc1ccc(C)c(C(=O)N(Cc2nc(-c3ccc(Cl)cc3)no2)C(C)C)c1 | 0.0567
40 | COc1cc([N+](=O)[O-])ccc1NC(=S)Nc1cc(C(=O)OC(C)C)cc(C(=O)OC(C)C)c1 | -0.119
41 | Cc1cc(C(=O)OCC(=O)Nc2ccccc2[N+](=O)[O-])c2ccccc2n1 | -0.302
42 | CCCCCCn1c(CN2CCN(C(=O)OCC)CC2)nc2c1c(=O)n(C)c(=O)n2C | -0.0755
43 | CCOC(=O)Cc1csc(NC(=O)c2csc(C)c2)n1 | -0.512
44 | Cc1ccccc1C(=O)NNC(=O)c1ccc(F)cc1 | 0.0481

Row | SMILES | z-score
45 | Cc1ccc(-n2c(C)cc(=O)cc2C)c(C)c1 | -0.22
46 | O=C(Cc1ccc(F)cc1)c1ccc(O)cc1O | -0.32
47 | Cc1sc2nc(C(C)C)nc(SCC(=O)N3c4ccccc4CC3C)c2c1C (centres undefined) | active: 10.2
48 | COc1cc(NC(=S)NCCC(c2ccccc2)c2ccccc2)c(OC)cc1Cl | 1.15
49 | Cc1ccc(-c2[nH]nc3c2C(c2ccsc2)C(C#N)=C(N)O3)cc1 (centres undefined) | -0.354
50 | Nc1nc(-c2ccc(F)cc2)cc(C(F)(F)F)n1 | -0.44
51 | COc1ccc(C(=O)NN=C(Cc2ccccc2)Cc2ccccc2)cc1OC | -0.165
52 | Oc1ccc(N=Nc2n[nH]c(-c3ccc(Cl)cc3)n2)cc1 | 0.526
53 | CCCCCC(=O)NC(=S)NNC(=O)c1ccc([N+](=O)[O-])cc1 | 2.66
54 | Cc1ccc(Cn2c(=O)sc3ccccc3c2=O)cc1 | 0.0456
55 | CCCCNC(=O)c1c(N)n(/N=C/c2ccccn2)c2nc3ccccc3nc12 | -0.0364
56 | COC(=O)c1ccc(CSc2nc(N)cc(N)n2)cc1 | 0.138
57 | Cc1ccc(NC(=O)NCCCc2ccccc2)cc1 | -0.0756
58 | Cc1ccc(/C=C/C(=O)c2ccccc(=O)c2O)cc1C | active: 5.65
59 | Cc1ccc(NC(=O)CSc2ncc(-c3ccccc3)n2C(=O)c2ccccc2)cc1 | -0.138
60 | Cc1cccc(C(=O)/C=C2/c3ccccc3CC(C)(C)N2C)c1 | -0.509
61 | CCOc1ccc2c(c1)-c1c(ssc1=S)C(C)(C)N2 | 0.474
62 | CCCCN(Cc1ccccc1)C(=O)c1cnc2n(c1=O)CCS2 | -0.308
63 | Cc1ccc(-n2c(NN)nc3ccccc3c2=O)c(C)c1 | 0.522
64 | CCN(c1cccc(C)c1)S(=O)(=O)c1ccc2[nH]c(=O)c(=O)[nH]c2c1 | 0.0977
65 | CC(CCc1ccccc1)NC(=O)C(Cc1ccccc1)NS(=O)(=O)c1cccs1 (centres undefined) | -0.446
66 | CN(CC(=O)Nc1ccc2c(c1)OCCO2)S(=O)(=O)c1ccc(Br)s1 | -0.249

Row | SMILES | z-score
67 | O=c1[nH][nH]c(C(F)(F)F)c1C=Nc1ccccc1Cl | 0.0515
68 | CCn1c(O)c(N=NC(=O)Cn2ccc(C(F)(F)F)n2)c2ccccc21 | 0.53
69 | COc1ccc(/C=C2/SC(=O)N(CCC(=O)Nc3ccc(S(=O)(=O)Nc4nccs4)cc3)C2=O)cc1 | -0.507
70 | c1csc(CNc2nc3ccccc3n2CCN2CCOCC2)c1 | 0.928
71 | Cc1ccc2c(CC(=O)Nc3nc(C)cs3)coc2c1 | 0.287
72 | Cn1cc(Cl)c(C(=O)NC(=S)Nc2sc3c(c2C#N)CCCCC3)n1 | -0.554
73 | COC(=O)c1ccc(-n2nnnc2SCC(=O)NCc2cccc(C(=O)O)c2)cc1 | -0.61
74 | Cc1ccc(-n2nnc3c(=O)n(CC(=O)NCc4ccco4)cnc32)cc1 | -0.615
75 | Cc1c(OCC(=O)OC(C)C)ccc2c3c(c(=O)oc12)CCC3 | 0.0982
76 | COc1ccc(-c2cc(C(F)(F)F)n3nc(C(=O)O)cc3n2)cc1OC | -0.445
77 | O=C(NNc1ccccc1[N+](=O)[O-])Nc1ccccc1 | -0.0971
78 | Cc1cc(C)c(C#N)c(SCSCc2ccccc2)n1 | -0.445
79 | C=CCSc1nnc(-c2cccnc2)o1 | -0.603
80 | Cc1ccccc1NS(=O)(=O)c1cc(C(=O)Nc2cccc(N(C)S(C)(=O)=O)c2)ccc1C | -0.267
81 | COC(=O)C(NC=O)C(O)(Cc1ccccc1)C(F)(F)F (centres undefined) | -0.199
82 | CCC(=O)Nn1cnc2c(c1=O)C1(CCCCC1)Cc1ccccc1-2 | -0.521
83 | CCn1c(C)nc2cc(C(=O)NNC(=S)Nc3ccc(Cl)cc3Cl)ccc21 | -0.372
84 | COc1cccc2cc(C(=O)N3CCN(c4ccc(C)cc4C)CC3)c(=O)oc12 | -1.05
85 | CS(=O)(=O)NN1C(=O)c2ccccc2NC1c1c[nH]c2ccccc12 (centres undefined) | 0.0459
86 | ON1C2CCCCC2N(O)C1c1ccccc1C(F)(F)F (centres undefined) | -0.161
87 | CCN(CCO)c1ncnc2c1sc1nc(C(C)C)c3c(c12)CC(C)(C)OC3 | -0.241
88 | COc1cc(CN2CC(C)OC(C)C2)cc(OC)c1 (centres undefined) | 0.361

Row | SMILES | z-score
89 | COCCNC(=O)CSCc1nc(-c2ccc(SC)cc2)oc1C | -0.24
90 | O=C(COC(=O)CCc1c[nH]c(=O)[nH]1)Nc1cccc(Cl)c1 | -0.0238
91 | Cc1cc2c(C)nc(N/N=C/c3ccc([N+](=O)[O-])cc3)nc2o1 | -0.272
92 | CCCCOc1ccc(CNC(=O)NS(=O)(=O)c2ccc(OCC)cc2)cc1 | 0.401
93 | O=C(Cc1ccccc1)NCC(=O)OCC(=O)c1ccc([N+](=O)[O-])cc1 | -0.117
94 | O=C(/C=C/c1ccc(Cl)c(Cl)c1)N1CCc2ccccc21 | 0.293
95 | CC(C)Oc1ccc(/C=N/NC(N)=S)cc1 | 1.24
96 | COc1ccc(-c2csc(N(CC3CCCO3)C(=O)c3ccco3)n2)cc1 (centres undefined) | -0.318
97 | Cc1ccc(CNC(=O)C2CC(=O)N(C3CCCCCCC3)C2)cc1 (centres undefined) | 0.438
98 | CN1CCN(C(=O)c2ccc(COc3ccc(Cl)cc3Cl)cc2)CC1 | 0.0492
99 | Cc1ccc(S(=O)(=O)N(C)Cc2ccc(C(=O)N/N=C/c3ccc(OC(F)F)cc3)cc2)cc1 | 0.0686
100 | Cc1cc(C)c(NC(=O)CS(=O)CC(=O)NC2CCCc3ccccc32)c(C)c1 (centres undefined) | -0.236
101 | CCOC(=O)C(C(=O)OCC)C(=O)c1cc(OC)c(OC)c(OC)c1 | 0.0614
102 | CCOC(=O)CSc1nnc(-c2cccc(Cl)c2)n1CC | 1.3
103 | CCCCN(C(=O)CNC(=O)c1ccco1)C(C(=O)NC1CCCCC1)c1ccc(OC)cc1OC (centres undefined) | 0.432
104 | CCCC/C(C)=N/NC(=O)C(=O)NCCc1ccccc1 | -0.418
105 | COc1ccc(NS(=O)(=O)c2ccc(N3CCCC3)c(NC(=S)Nc3ccc(SC(F)F)cc3)c2)cc1 | -0.258
106 | CC(C)CC(=O)NC(=S)Nc1ccc(N2CCOCC2)cc1 | 1.36
107 | CCNC(=O)c1c(O)c2cccc3c2n(c1=O)CC3 | -0.449
108 | COc1ccc(C(=O)NN/C(C)=C/C(=O)C(F)(F)C(F)(F)C(F)(F)F)cc1 | 0.319
109 | Cc1nn(C(C)(C)C)c(OC(=O)c2cccs2)c1Sc1ccccc1 | 0.138
